# Measured values as given in PubChem BioAssay AID624417 (National Center for Advancing Translational Sciences (NCATS), 2012).
# About 6,400 (1.6%) of roughly 410,000 compounds were called active. This list was built around the results that the source calls inconclusive (neither active nor inactive); the mix of calls is not that of the screen. Calls follow the shape of the dose curve; as a rule, active = well fitted inhibition curve with a large enough effect; inconclusive = small, poorly fitted or top-dose-only effect; inactive = no such curve, though single readings can be large or run the other way. Potencies of inconclusive entries are left out as doubtful fits.
# Molecular target: Glucagon-like peptide 1 receptor (Homo sapiens) (UniProt P43220)
# Assay: qHTS of GLP-1 Receptor Inverse Agonists (Inhibition Mode); also: nearly all actives have a fitted effect of over 55% in size
# Conditions: HEK293 GLP-1R CRE-luciferase, luminescence, 24 h, GLP-1R form is constitutively active; activity change, negative = inhibition: at 38.3 µM (top of the series) unless noted
# Method in brief: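 Inverse agonists were sought by their lowering of basal cAMP reporter luciferase output in HEK293 cells stably carrying constitutively active human GLP-1R, after 24 h compound treatment.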
# % is scaled to controls: 0 for no effect and ±100 for the full control effect; potency is read from the fitted curve at half-maximal effect; tags tell the direction and shape of the fitted curve.
# UniProt P43220, sequence (P43220 whole entry, looked up): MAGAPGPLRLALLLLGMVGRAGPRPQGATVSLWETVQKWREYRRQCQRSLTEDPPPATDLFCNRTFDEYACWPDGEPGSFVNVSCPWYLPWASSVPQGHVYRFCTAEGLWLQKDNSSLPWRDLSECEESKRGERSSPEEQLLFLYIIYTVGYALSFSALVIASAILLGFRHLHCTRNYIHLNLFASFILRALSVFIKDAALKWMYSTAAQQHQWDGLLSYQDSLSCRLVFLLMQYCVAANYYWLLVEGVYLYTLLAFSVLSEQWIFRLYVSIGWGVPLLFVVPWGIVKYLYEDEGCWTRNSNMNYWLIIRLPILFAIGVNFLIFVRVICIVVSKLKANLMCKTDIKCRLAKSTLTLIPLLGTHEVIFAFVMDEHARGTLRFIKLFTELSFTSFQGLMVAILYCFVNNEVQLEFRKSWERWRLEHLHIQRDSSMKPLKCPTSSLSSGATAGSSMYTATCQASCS
SMILES,Potency,"activity change, negative = inhibition"
Cc1ccc(NC(=S)C2=C(O)c3sccc3N(C)S2(=O)=O)cc1,"inconclusive [inhibitor, single point]",–
Cc1ccc(NC(=O)Cn2nnc(C(=O)NCCc3ccccc3)c2N)cc1,–,inactive: -7.37%
CCc1nc2c(OCc3ccc(Cl)cc3)cccn2c1N(C)C(=O)c1ccc(C)cc1,"inconclusive [inhibitor, single point]",–
Clc1ccc(-c2csc(-c3nc(-c4ccc(Br)s4)cs3)n2)cc1,–,inactive: -16.4%
COc1cccc(NC(=S)N(CCCN2CCN(C)CC2)Cc2ccco2)c1,"inconclusive [inhibitor, single point]",–
N#Cc1c(N2CCOCC2)nc(-c2ccco2)c2c1CCCC2,"inconclusive [inhibitor, single point]",–
COc1ccc(NC(=O)c2cc(-c3ccccn3)nc3ccccc23)cc1S(=O)(=O)N(C)C,"inconclusive [inhibitor, partial curve, poor fit]",–
COc1ccc(Nc2nnc(-c3ccc(C)c(S(=O)(=O)NCc4nc5ccccc5[nH]4)c3)c3ccccc23)cc1,"inconclusive [inhibitor, single point]",–
COc1cc(/C=C2/C(=O)NN(c3ccc(Cl)c(Cl)c3)C2=O)cc([N+](=O)[O-])c1O,"inconclusive [inhibitor, partial curve, poor fit]",–
Cc1nn(-c2ccccc2)c(N2CCCC2)c1/C=N/NC(=O)c1cc(-c2cccnc2)nc2ccccc12,"inconclusive [inhibitor, single point]",–
CC1CCCN(CC(=O)NC(=O)NC2CCCCC2)C1 (stereo not given),"inconclusive [inhibitor, partial curve, poor fit]",–
CC(=O)Nc1ccc(NC(=O)/C=C/c2ccc(Cl)cc2)cc1,–,inactive: -5.3% [at 7.66 µM]
CCC(C)Sc1oc(-c2ccco2)nc1S(=O)(=O)c1ccc(Cl)cc1 (stereo not given),"inconclusive [inhibitor, single point]",–
COc1ccccc1C1CC(=O)Nc2cc(C)c(C)cc21 (stereo not given),"inconclusive [inhibitor, full curve, poor fit]",–
CCOC(=O)C1=NNC(C(=O)c2ccc(Cl)cc2)C1c1ccc(OC)cc1 (stereo not given),"inconclusive [inhibitor, single point]",–
COc1ccc(-c2cc(C(=O)Nc3cnn(Cc4ccccc4C)c3)no2)cc1OC,–,inactive: 0%
CCC1CCCCN1C(=O)CSc1nnc(-c2c[nH]c3ccccc23)o1 (stereo not given),active: 11.2 µM,–
Cc1ccc(C)c2nc(Cl)c(C3NC(=O)c4ccccc4N3)cc12 (stereo not given),"inconclusive [inhibitor, single point]",–
CC(C)C[C@H](N)c1nnc(S(=O)(=O)Cc2ccc(F)cc2)o1,"inconclusive [inhibitor, single point]",–
CC1CCN(c2oc(Cc3cccc4ccccc34)nc2C#N)CC1,"inconclusive [inhibitor, partial curve, poor fit]",–
CCc1cc(C(=O)N2CCCC(C(=O)c3cccc(OC(C)C)c3)C2)n(C)n1 (stereo not given),"inconclusive [inhibitor, partial curve]",–
COc1ccccc1CNc1nc(NCc2ccc3occc3c2)c2sccc2n1,"inconclusive [inhibitor, partial curve, poor fit]",–

SMILES,Potency,"activity change, negative = inhibition"
O=C1OCCC1Sc1nnc(-c2ccc(F)cc2)n1Cc1ccccc1 (stereo not given),–,inactive: 8.47%
Cc1cccc(CSCCNC(=O)COc2ccc(Cl)cc2)c1,"inconclusive [inhibitor, single point]",–
CNC(=S)N(Cc1cc2cc(C)cc(C)c2[nH]c1=O)C1CCCC1,"inconclusive [inhibitor, single point]",–
CC(C)(C)C(=O)c1cnc(Nc2ccccc2Cl)s1,"inconclusive [inhibitor, single point]",–
CCCCCCCCCCCC(=O)NC(C(=O)OCC)C(O)c1cccc([N+](=O)[O-])c1 (stereo not given),"inconclusive [inhibitor, single point]",–
Cc1nc(N/N=C/c2ccccn2)sc1C,active: 2.24 µM,–
CCOC(=O)c1[nH]c2ccc(OCC)cc2c1NC(=O)CN1CCC2(CC1)OCCO2,–,inactive: 19.5%
O=C(NNS(=O)(=O)c1ccccc1[N+](=O)[O-])c1cccnc1,"inconclusive [inhibitor, single point]",–
Cc1cc(C(=O)CSc2nc3ccccc3[nH]2)c(C)n1Cc1ccco1,"inconclusive [inhibitor, partial curve, poor fit]",–
CCN(CC)C1=C(Cl)C(=O)C(Cl)C12OCCO2 (stereo not given),–,inactive: -14.2%
COCCNC(=S)N/N=C(\C)c1ccc(Cl)s1,active: 2.24 µM,–
O=C1CCSc2ccc(Cl)cc2N1Cc1ccc(Cl)cc1,"inconclusive [inhibitor, partial curve, poor fit]",–
CN1C[C@@H]2C(c3ccc(C(F)(F)F)cc3)C3(c4cccnc4)CC2(C3)[C@H]1c1ccccc1 (stereo not given in full),"inconclusive [inhibitor, partial curve, poor fit]",–
COc1ccc(CN(C)C(=O)c2cc(-c3ccccc3)nc3ccc(C)cc23)c(OC)c1OC,"inconclusive [inhibitor, partial curve, poor fit]",–
CCN(C(=O)CCc1nc(-c2ccc(C)cc2)no1)c1cccc(Cl)c1,"inconclusive [inhibitor, single point]",–
OCCN1CCN(c2cc(-c3ccccc3)c3ccccc3n2)CC1,"inconclusive [inhibitor, partial curve, poor fit]",–
CCC(NC(=O)Nc1cc(OC)c(OC)c(OC)c1)(C(F)(F)F)C(F)(F)F,"inconclusive [inhibitor, single point]",–
Cc1csc(Nc2cccc3ccccc23)n1,"inconclusive [inhibitor, single point]",–
CC(=O)c1cccc(NC(=O)Cc2ccc(NC(=O)N3CCCCc4ccccc43)cc2)c1,"inconclusive [inhibitor, single point]",–
COc1ccc(S(=O)(=O)N(CC(=O)NCCSc2ccccc2)c2ccc(C)cc2)cc1,"inconclusive [inhibitor, partial curve, poor fit]",–
CC1(C)Cc2cccc(OCC(=O)NCc3ccc(F)cc3)c2O1,"inconclusive [inhibitor, partial curve, poor fit]",–
COc1cccc(NC(=O)Nc2ccncc2)c1,–,inactive: -4%

SMILES,Potency,"activity change, negative = inhibition"
CCCCNc1oc(-c2ccc(COc3ccccc3C)o2)nc1C#N,"inconclusive [inhibitor, single point]",–
COc1ccccc1N1CCN(Cc2nc(N)nc(Nc3ccc(C)cc3)n2)CC1,"inconclusive [inhibitor, full curve, poor fit]",–
CC(C)NC(=S)NN=C1CCCCCCCCCCC1,"inconclusive [inhibitor, partial curve, poor fit]",–
COc1ccc(S(=O)(=O)NCCc2sc3nc(-c4ccc(C)cc4)nn3c2C)cc1C,"inconclusive [inhibitor, single point]",–
COCCN(Cc1ccccc1)C(=O)c1cccc(S(=O)(=O)N2CCN(c3ccccc3)CC2)c1,active: 10 µM,–
CCOC(=O)c1cc(-c2ccccc2)n(CCC(=O)NCCc2cccc(C)c2)c1C,"inconclusive [inhibitor, partial curve, poor fit]",–
CCOc1ccc2nc(Cl)c(/C=C/C(=O)c3ccco3)cc2c1,–,inactive: 75.6%
Cc1nc(-c2ccccc2)nc2[nH]c(=O)n(-c3ccccc3)c(=O)c12,–,inactive: 9.36%
CCCCN1CCCc2cc(CN(CCCN3CCOCC3)C(=O)Nc3ccc(CC)cc3)ccc21,–,inactive: 1.75%
CCOC(=O)c1c(-c2ccc(OC)c(OC)c2)csc1NC(=O)c1ccc(C)cc1,–,inactive: 5.23%
ONC(=Nc1cccc(C(F)(F)F)c1)c1cccnc1,–,inactive: 1.85%
Cc1nn(Cc2noc(C(=O)NCc3ccc4c(c3)OCO4)n2)c(C)c1Br,"inconclusive [inhibitor, single point]",–
O=C(Nc1ccc(Br)cc1)/C(=C/c1cccc([N+](=O)[O-])c1)NC(=O)C1CCCCC1,"inconclusive [inhibitor, single point]",–
O=C(NCc1ccc(F)cc1)c1cc2cccc3c2n1CCS3,"inconclusive [inhibitor, single point]",–
O=C(NC(c1ccc(Cl)cc1)c1cccnc1)C1CCN(CCOc2ccc(Cl)cc2Cl)CC1 (stereo not given),"inconclusive [inhibitor, partial curve, poor fit]",–
COc1ccc(C2C(C(=O)Nc3cccc(C)n3)CCC(=O)N2c2ccc(OC)cc2)cc1 (stereo not given),"inconclusive [inhibitor, partial curve, poor fit]",–
Cc1cccc(NC(=O)CNC(=O)c2ccc(-n3cncn3)c([N+](=O)[O-])c2)c1C,–,inactive: 14.6%
Cn1ccc2cc(NC(=O)Nc3cccnc3)ccc21,"inconclusive [inhibitor, single point]",–
Cc1ccc(C2(C)NC(=O)N(CC(=O)NCc3cccc(Cl)c3)C2=O)cc1 (stereo not given),"inconclusive [inhibitor, single point]",–
COc1ccc(Cl)cc1NC(=S)NN1CCOCC1,"inconclusive [inhibitor, partial curve, poor fit]",–
CCc1ccc(NC(=O)C2=C(C)C(=O)OC23CCCCC3)cc1,"inconclusive [inhibitor, single point]",–
